60 molecules from PubChem BioAssay AID1645882 (National Center for Advancing Translational Sciences (NCATS), 2021) can be followed below.

Molecules are shown by their SMILES. Among all 16,000 compounds or so, about 120 (0.75%) were called active. Not shown: some 4% with an inconclusive outcome. Calls follow the shape of the dose curve; as a rule, active = well fitted inhibition curve with a large enough effect; inconclusive = small, poorly fitted or top-dose-only effect; inactive = no such curve, though single readings can be large or run the other way. This is one part of the list. *1 amine or outer side, *2 acyl side, *3 side chain or, on linkers, in order; H or OH if unused. Where a SMILES comes first, the peptide text is derived from it. Bridges are numbered along the chain shown (N, C = ends). Roman numbers before positions name the chains, in order. [ ]: non-standard residue; d: D form. Actinocin(9to1) = Cc1c2oc3c(C)ccc(C(=O)[*:1])c3nc-2c(C(=O)[*:2])c(N)c1=O; aThr = C[C@H](O)[C@H](N)C(=O)O; NMeV = CN[C@H](C(=O)O)C(C)C; Sar = CNCC(=O)O

Chain of UniProt O95398 (O95398 whole entry, looked up): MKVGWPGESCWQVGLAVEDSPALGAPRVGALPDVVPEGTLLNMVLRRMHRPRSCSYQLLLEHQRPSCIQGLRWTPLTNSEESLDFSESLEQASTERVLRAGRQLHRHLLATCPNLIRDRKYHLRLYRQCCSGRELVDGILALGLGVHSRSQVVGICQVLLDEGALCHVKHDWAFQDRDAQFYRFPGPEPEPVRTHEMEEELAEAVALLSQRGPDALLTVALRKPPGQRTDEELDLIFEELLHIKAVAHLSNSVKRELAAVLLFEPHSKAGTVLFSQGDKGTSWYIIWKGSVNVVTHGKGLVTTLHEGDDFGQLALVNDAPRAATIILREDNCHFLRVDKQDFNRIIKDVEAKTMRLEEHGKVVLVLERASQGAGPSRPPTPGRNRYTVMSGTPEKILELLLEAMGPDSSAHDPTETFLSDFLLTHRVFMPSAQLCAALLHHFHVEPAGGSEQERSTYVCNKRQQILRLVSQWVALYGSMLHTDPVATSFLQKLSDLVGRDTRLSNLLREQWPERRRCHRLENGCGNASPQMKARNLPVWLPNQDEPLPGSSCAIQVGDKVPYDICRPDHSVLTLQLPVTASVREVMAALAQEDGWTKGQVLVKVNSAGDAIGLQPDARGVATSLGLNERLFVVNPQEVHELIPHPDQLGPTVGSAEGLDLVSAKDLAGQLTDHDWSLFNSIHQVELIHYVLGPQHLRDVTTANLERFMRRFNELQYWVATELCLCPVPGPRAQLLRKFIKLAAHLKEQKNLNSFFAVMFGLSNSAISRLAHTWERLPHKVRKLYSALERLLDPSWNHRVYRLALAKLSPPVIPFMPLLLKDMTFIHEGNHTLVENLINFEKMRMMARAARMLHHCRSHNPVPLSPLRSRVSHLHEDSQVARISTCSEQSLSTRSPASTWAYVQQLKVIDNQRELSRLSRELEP

The assay addresses Rap guanine nucleotide exchange factor 3 (Homo sapiens) (UniProt O95398). The assay is described as follows: Validation qHTS for antagonist of cAMP-regulated guanine nucleotide exchange factor 3 (EPAC1).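 Also: plate controls were DMSO for no effect and ATA control for full effect; nearly all actives have a fitted effect of over 75% in size.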 Particulars: EPAC1 Rap1B-BODIPY-GDP exchange, fluorescence; series mostly up to 150 µM; activity change, negative = inhibition: at the top concentration. Summed up:
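Nucleotide exchange followed as fluorescence loss when BODIPY-GDP leaves Rap1B (480 nm excitation, 540 nm emission), read at 5 min intervals over 30 min. Reaction: 100 nM EPAC1, 250 nM RAP1B-BODIPY-GDP, 50 uM GDP; ATA and DMSO define normalization.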
As for `C[N+]1(CCCCC[N+]2(C)CCCC2)CCCC1`, the activity change, negative = inhibition result was “inactive”.
With `Cc1nc2cncnc2n(Cc2ccc(F)cc2)c1=O` the figure was inactive: 17.7%; with `Cc1noc(C)c1-c1cncnc1-n1ccnc1`, inactive: 3.01%.
Regarding `O=c1cnc2cnc(OCc3ccccc3)nc2n1CCc1ccccc1`, the “activity change, negative = inhibition” value is inactive: -14.6%.
With `C[C@H](CCC(=O)NCCS(=O)(=O)O)C1CC[C@H]2C3CC[C@@H]4C[C@H](O)CC[C@]4(C)C3C[C@H](O)[C@]12C` (stereo not given in full) the figure was inactive: -1.03%; with `COCCNc1cc(-c2ccccc2C)ncn1`, inactive: -13.6%; with `CSc1ncccc1C(=O)N1CCc2nnc(C(NC(=O)c3ccoc3)C(C)C)n2CC1` (stereo not given), inactive: 6%.
Turning to `O=C(Nc1ccccc1)c1cc([N+](=O)[O-])ccc1Cl`, the activity change, negative = inhibition entry is “inactive”.
With `COC(=O)c1c(OCc2ccccn2)cc(=O)n2c1CCN(C(=O)c1n[nH]c3c1CCCC3)CC2` the figure was inactive: 8.01%; with `COc1ccc(-c2oc3cc(O[C@@H]4OC(CO)C(O)C(O)C4O)c(OC)c(O)c3c(=O)c2OC)cc1O` (stereo not given in full), inactive: 14.8%; with `CN1CCCC2(CCN(C(=O)c3cc(C(F)(F)F)cc(C(F)(F)F)c3)CC2)C1`, inactive: 9.5%.
In the case of `COc1cccc(Nc2ncc3nc(-c4cccs4)c(=O)n(CCC#N)c3n2)c1`, the “activity change, negative = inhibition” value was inactive: 38.1%.
To `CC1O[C@@H](O[C@@H]2C(O)C[C@H](O[C@@H]3C(O)C[C@@H](OC4CC[C@@]5(C)C6CC(O)[C@@]7(C)C(C8=CC(=O)OC8)CC[C@@]7(O)C6CC[C@@H]5C4)OC3C)OC2C)CC(O)[C@H]1O` (stereo not given in full) belongs inactive: 14.6%.
With `C[C@H]1CC2C3CCC4=CC(=O)C=C[C@]4(C)[C@@]3(Cl)[C@@H](O)C[C@]2(C)[C@@]1(O)C(=O)CO` (stereo not given in full) the figure was inactive: 4.46% [at 75.8 µM].
As to `Cc1onc(-c2ccccc2)c1-c1ccc(S(N)(=O)=O)cc1`, the “activity change, negative = inhibition” value was inactive: 11.5%.
Consider `O=c1cnc2cnc(N3CCOCC3)nc2n1C1CC1`, for which the “activity change, negative = inhibition” value was inactive: 2.36%.
Regarding `O=C(Nc1ccccc1)N1CCCC2(CCN(C(=O)c3cccc(F)c3)CC2)C1`, the “activity change, negative = inhibition” value is inactive: 6.25%.
With `CC1=C(CC(=O)O)c2cc(F)ccc2/C1=C\c1ccc(S(C)=O)cc1` (stereo not given) the entry was “inactive”; with `CC(=O)N1CCC2(CCN(Cc3ccc(C#N)cc3)CC2)CC1`, inactive: 13%.
With `CCC(=O)N[C@@H]1c2ccccc2C2(CCN(Cc3ccccn3)CC2)[C@H]1OC` the figure was inactive: 10.4%; with `CC[N+]1(CC)CCC(=C(c2ccccc2)c2ccccc2)C1C` (stereo not given), inactive: 29.2%; with `COCC(=O)N1CCC2(CC1)CN(C(c1ccccc1)c1ccccc1)C2`, inactive: 1.39%.
To `CCCc1cc(=O)[nH]c(=S)[nH]1` belongs “inactive”; to `COc1ccc(C(=O)N2CCC3(CC2)CN(c2ccccn2)C3)cc1`, inactive: 12.9%; to `Cc1ccc(CN2[C@H]3CCCC[C@@H]3OCCS2(=O)=O)cc1`, inactive: -2%.
As to `O=S(=O)(N(Cc1ccccc1)[C@H](CO)Cc1ccccc1)N(Cc1ccccc1)[C@H](CO)Cc1ccccc1`, the “activity change, negative = inhibition” value is inactive: 6.54%.
Take `N#CCCn1c(=O)c(-c2ccccc2)nc2cnc(OCc3ccccc3)nc21`: the “activity change, negative = inhibition” value is inactive: 9.4%.
Take `Cn1cnc2nc(NCCO)nc(NCc3ccccc3)c21`: the “activity change, negative = inhibition” value is inactive: 27.8%.
To `O=c1[nH]c(=O)c2[nH]c(=O)[nH]c2[nH]1` belongs “inactive”.
With `CN=C1N[C@H](c2ccccc2)N(c2ccccc2)S1` the figure was inactive: -0.126%.
With `Nc1nc(OCc2ccccc2)c2[nH]cnc2n1` the figure was inactive: 3.95% [at 75.8 µM]; with `COc1ccc(CN2CCOc3ccc(CN4CCC(Oc5cccnc5)CC4)cc3C2)c(F)c1`, inactive: 7.6%.
`CCCCC(=O)O`: the activity change, negative = inhibition result is “inactive”.
With `Cc1c2oc3c(C)ccc(C(=O)N[C@@H]4C(=O)N[C@@H](C(C)C)C(=O)N5CCC[C@@H]5C(=O)N(C)CC(=O)N(C)[C@@H](C(C)C)C(=O)O[C@H]4C)c3nc-2c(C(=O)N[C@@H]2C(=O)N[C@@H](C(C)C)C(=O)N3CCC[C@@H]3C(=O)N(C)CC(=O)N(C)[C@@H](C(C)C)C(=O)O[C@H]2C)c(N)c1=O` (I: [aThr]V[dP][Sar][NMeV] / II: [aThr]V[dP][Sar][NMeV]; ester I:1-I:C, II:1-II:C; linker I:N-II:N via Actinocin(9to1)) the figure was inactive: -8.52%.
In the case of `CN(C)c1ccc(/C=C/c2cc(N(C)C)nc3ccccc23)cc1`, the “activity change, negative = inhibition” value was inactive: -0.19%.
Regarding `c1ccc2c(Cc3c[nH]c4ccccc34)c[nH]c2c1`, the “activity change, negative = inhibition” value was inactive: -12.5%.
Regarding `Cc1sc(N)c(C(=O)c2cccc(C(F)(F)F)c2)c1C`, the “activity change, negative = inhibition” value was inactive: -29.6%.
For the molecule `COc1ccc(OC)c2c(=S)c3ccccc3[nH]c12`, the “activity change, negative = inhibition” value is inactive: -19.8%.
For the molecule `CN(C)Cc1ccccc1-c1ccc2ncnc(NCc3ccccc3)c2c1`, the “activity change, negative = inhibition” value was inactive: 28.6%.
To `COC(=O)[C@@H]1CCCN1Cc1ccc2c(c1)CN(Cc1cc(OC)c3c(c1)OCO3)CCO2` belongs inactive: 2.66%; to `CCCN[C@@H]1C(=O)N2C(C(=O)OCCC)=C(C)CS[C@H]12`, inactive: -14.6%.
To `CN(Cc1cnc2ccccn12)C(=O)c1cc(NC(=O)c2ccccc2)cc2ncn(C3CCCC3)c12` belongs inactive: -3.58%; to `CO/N=C(\C(=O)N[C@@H]1C(=O)N2C(C(=O)OCOC(=O)C(C)(C)C)=C(/C=C\c3scnc3C)CS[C@H]12)c1csc(N)n1`, inactive: 18%.
Regarding `Cc1ccccc1-c1cc(N2CCNCC2)ncn1`, the “activity change, negative = inhibition” value is inactive: 15.4%.
For the molecule `CCC(C(=O)OCCOCCN(CC)CC)c1ccccc1` (stereo not given), the “activity change, negative = inhibition” value was inactive: 13.5%.
With `S=C(S)OC1CC2CC1C1CCCC21` (stereo not given) the figure was inactive: -9.81% [at 75.8 µM]; with `CC[N+]1(CC(=O)c2ccc(OC)cc2)CCCCC1`, inactive: 15.6%.
`COc1ccccc1-c1nc(N2CCN(C)CC2)c2ccccc2n1`: the “activity change, negative = inhibition” value is inactive: 0.0166%.
With `O=c1cc(-c2ccccc2F)[nH]c2cc3c(cc12)OCO3` the figure was inactive: 26.5% [at 75.8 µM]; with `O=[N+]([O-])c1ccc(-c2nc(-c3ccc(F)cc3)c(-c3ccncc3)[nH]2)cc1`, inactive: 1.72% [at 75.8 µM]; with `COC(=O)c1cccnc1`, inactive: -11%.
As to `CN(C)c1ncc2nc(-c3cc(F)cc(F)c3)c(=O)n(C3CC3)c2n1`, the “activity change, negative = inhibition” value is inactive: 4.54%.
`Cc1ccc(SCCN2CCC(C)CCC2=O)cc1` (stereo not given): the “activity change, negative = inhibition” value was inactive: 4.59%.
With `OC(CN1CCCC1)c1ccccc1` (stereo not given) the figure was inactive: 18.5%; with `O=S1(=O)CCOC[C@H](c2ccccc2)N1Cc1cccc(Cl)c1`, inactive: -14.2%.
To `CC1(C)CCC(=O)N2CC[C@H]3C[C@H](OC(=O)Nc4ccccc4)C[C@@H]1[C@H]32` belongs inactive: -11.9%.
To `COc1ccccc1-c1cc2c(c(OC)c1)OCCN(C(=O)Cn1nc(-c3ccccc3)c3ccccc3c1=O)C2` belongs inactive: 5.74%.
Turning to `C=C[C@@H]1c2cc(C)ccc2N(S(=O)(=O)c2ccc(C)cc2)[C@H](c2ccc(C(=O)OC)cc2)C1(C#N)C#N`, the “activity change, negative = inhibition” value was inactive: 6.81%.
To `O=C(CCc1ccc(O)cc1)c1c(O)cc(O)cc1O[C@@H]1O[C@H](CO)[C@@H](O)[C@H](O)[C@H]1O` belongs inactive: -12.4%; to `CCC1C(=O)NCCN1Cc1ccc2c(c1)CN(Cc1cccn1-c1ccc(Cl)cn1)CCO2` (stereo not given), inactive: 3.29%.
